Measurements taken from the supplement of paper PMC7125110.
Variants at the floor of the assay are shown more often than the library holds them.

B1: glmS ribozyme (parent)
chain: AUAAAAGCGCCAGAACUACAGAAAUGUAGUUGACGAGGAGGAGGUUUAUCGAAUUUUCGGCGGAUGCCUCCAAA

Assays:
Details in all cases: with glucosamine-6-phosphate
[1] = variants of: B1; experiment: self-cleavage kobs at 40 uM GlcN6P; higher = faster cleavage; RNA array
In short: (§1)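 E. coli RNA polymerase transcribed barcoded ribozyme variants in situ on sequenced MiSeq chips, which were tracked via a hybridised Cy3 probe at 37 °C. Tiles were imaged over ~14 h after glucosamine-6-phosphate (40 μM to 10 mM) in HEPES/KCl/Mg(OAc)2 buffer was flowed in. Normalised per-tile medians were fit to one- or two-exponential decays for kobs, and kcat and KM came from weighted Michaelis–Menten fits.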

[2] = variants of: B1; experiment: self-cleavage kobs at 640 uM GlcN6P; higher = faster cleavage; RNA array
In short: as §1

[3] = variants of: B1; experiment: self-cleavage kobs at 2500 uM GlcN6P; higher = faster cleavage; RNA array
In short: as §1

[4] = variants of: B1; experiment: self-cleavage kobs at 10000 uM GlcN6P; higher = faster cleavage; RNA array
In short: as §1

[5] = variants of: B1; experiment: kcat; higher = faster cleavage; RNA array
In short: as §1

[6] = variants of: B1; experiment: self-cleavage kobs at 160 uM GlcN6P; higher = faster cleavage; RNA array
In short: as §1

Variant | self-cleavage kobs at 40 uM GlcN6P [1] [s⁻¹] | self-cleavage kobs at 640 uM GlcN6P [2] [s⁻¹] | self-cleavage kobs at 2500 uM GlcN6P [3] [s⁻¹] | self-cleavage kobs at 10000 uM GlcN6P [4] [s⁻¹] | kcat [5] [s⁻¹] | self-cleavage kobs at 160 uM GlcN6P [6] [s⁻¹]
G7U G32A G41C U49A U55G G63C | < 1e-05 | < 1e-05 | < 1e-05 | < 1e-05 |  | 
C10A G29C U30C A39C | < 1e-05 |  |  | < 1e-05 |  | 
A39U C68A | < 1e-05 |  |  |  | < 1e-05 | 
A39U A52C | < 1e-05 |  |  |  | < 1e-05 | < 1e-05
C10U A14C A36G G41A | < 1e-05 |  |  |  |  | 
G35U U54C |  | < 1e-05 |  |  | < 1e-05 | < 1e-05
G7C U49A U54A | < 1e-05 | < 1e-05 | < 1e-05 | < 1e-05 |  | < 1e-05
G9C G51A A52U C70G | < 1e-05 | < 1e-05 |  |  |  | 
C10G U47C | < 1e-05 | < 1e-05 |  | < 1e-05 |  | 
G9U G35U | < 1e-05 | < 1e-05 | < 1e-05 | < 1e-05 |  | < 1e-05
C10A U47C U54C G66U | < 1e-05 |  |  | < 1e-05 |  | 
C11A A52U | < 1e-05 | < 1e-05 |  |  |  | < 1e-05
A33U U56C |  |  |  |  | < 1e-05 | 
A36G C68A | < 1e-05 |  |  | < 1e-05 | < 1e-05 | 
A36G C68U |  |  |  |  | < 1e-05 | 
A6U A48U | < 1e-05 | < 1e-05 | < 1e-05 |  |  | < 1e-05
G7A G32A C58A | < 1e-05 |  |  | < 1e-05 |  | 
G9A U30G | < 1e-05 | < 1e-05 |  |  |  | 
A6C G44A | < 1e-05 | < 1e-05 |  | < 1e-05 |  | < 1e-05
G7U A15C U49A C61U | < 1e-05 |  | < 1e-05 | < 1e-05 |  | < 1e-05
A6U U47G G62C U65A C68U | < 1e-05 |  |  |  |  | 
C10A G43C | < 1e-05 | < 1e-05 |  |  |  | < 1e-05
G9C G35C | < 1e-05 | < 1e-05 | < 1e-05 | < 1e-05 |  | < 1e-05
A6C G37U U45C C61A | < 1e-05 |  |  |  |  | 
C10G U69G | < 1e-05 | < 1e-05 | < 1e-05 | < 1e-05 |  | 

Variant | self-cleavage kobs at 40 uM GlcN6P [1] [s⁻¹] | self-cleavage kobs at 640 uM GlcN6P [2] [s⁻¹] | self-cleavage kobs at 2500 uM GlcN6P [3] [s⁻¹] | self-cleavage kobs at 10000 uM GlcN6P [4] [s⁻¹] | kcat [5] [s⁻¹] | self-cleavage kobs at 160 uM GlcN6P [6] [s⁻¹]
G63C C70G | < 1e-05 |  |  | < 1e-05 | < 1e-05 | 
C8A U55G | < 1e-05 | < 1e-05 | < 1e-05 | < 1e-05 |  | 
A6G U45C A53C G62C | < 1e-05 |  |  | < 1e-05 |  | 
G9A G32U A52U G66C | < 1e-05 |  |  |  |  | 
A6G A42U U46A | < 1e-05 |  |  | < 1e-05 |  | 
G9C A39G G44U | < 1e-05 |  | < 1e-05 |  |  | 
G51U G66C |  |  | < 1e-05 | < 1e-05 | < 1e-05 | 
A6G C16U G32C G41U C68U | < 1e-05 | < 1e-05 |  |  |  | 
A6G C11A | < 1e-05 |  |  |  |  | < 1e-05
A6U C67U C70G | < 1e-05 |  |  |  |  | 
G9U A33U G38C G51A C67A | < 1e-05 |  |  |  |  | 
A6G U47C | < 1e-05 | < 1e-05 |  |  |  | < 1e-05
G7A A52C | < 1e-05 | < 1e-05 | < 1e-05 | < 1e-05 |  | < 1e-05
C8A A12U U57A | < 1e-05 |  |  | < 1e-05 |  | 
A6G C16A A39C U46A | < 1e-05 |  |  | < 1e-05 |  | 
G37A G63A | < 1e-05 |  |  | < 1e-05 | < 1e-05 | < 1e-05
G7A C10G A12C G32U U69C | < 1e-05 |  |  | < 1e-05 |  | 
C8A A12G C16U C58G G59U | < 1e-05 | < 1e-05 |  |  |  | 
G7C A33C | < 1e-05 | < 1e-05 | < 1e-05 | < 1e-05 |  | 
C8A A39C | < 1e-05 | < 1e-05 |  | < 1e-05 |  | < 1e-05
C8A U30A G60U G66U | < 1e-05 |  |  |  |  | 
G40C G60C |  | < 1e-05 | < 1e-05 |  | < 1e-05 | 
G43A G60A |  |  |  |  | < 1e-05 | 
C10G C34A C61G | < 1e-05 |  |  |  |  | 
